What was measured:
[1] = test system: Chromaffin cell; assay: One-photon microscope cell fluorescence imaging, Chromaffin cell; assay type: cell-based; conditions: for one-photon fluorescence of Chromaffin cell treated with inhibitor, then Chemical Formula 3: 100 μM inhibitor, then 100 μM Chemical Formula 3, 1 hour; for one-photon cell fluorescence image: Chromaffin cell (MAO B overexpressed), 100 μM, 1 hour
Text: (§1) The present inventors observed a fluorescence change in the C6 glioma cell and the Chromaffin cell treated with the compound 1 and the compound of Chemical Formula 3, respectively, and a fluorescence change treated with the MAO enzyme inhibitor through an one-photon electron microscope, and the fluorescence changes were illustrated in FIG. 11. The C6 glioma cell is a representative cell in which the MAO enzyme is not expressed (Aw, J. et al., Chem. Asian. J. 2010, 5, 1317.), and the Chromaffin cell is a cell known that the MAO B is overexpressed (Youdim, M. B. H. et al., Science 1984, 224, 619.).
The C6 glioma cell and the Chromaffin cell were prepared with the density of 2×10^6 cells at a dish of 60 mm (Park, Y. et al., Endocrinology 2006, 147, 1349). Each cell was kept under a solvent condition of DMEM (Hyclone), 10% of fetal bovine serum (Hyclone), and 1% of antibiotics (WelGENE) and a condition of 5% CO2-95% air at 37° C.
(§2) Cell fluorescence imaging was measured by using a fluorescence imaging microscope (Axiovert 200M, Carl Zeiss) after 100 μM of the compound 1 and the compound of Chemical Formula 3 were treated in respective cell dishes and kept for 1 hour under the same keeping condition. […] The excitation wavelength was 435 nm to 455 nm, and the emission wavelength was recorded in 555 to 575 nm.
(§3) In the case of the cell fluorescence imaging using the inhibitor, first, 100 μM of the inhibitor was treated in each cell dish, and the keeping process in the same condition as above was performed. Subsequently, 100 μM of the compound of Chemical Formula 3 was treated, and kept for 1 hour in the same condition, and then the fluorescence was measured.

[2] = molecular target: T1, MAO A (Homo sapiens, UniProt P21397); assay: MAO enzyme inhibitor experiment with compound of Chemical Formula 3 as fluorescent probe (MAO A); assay type: biochemical; conditions: 70 μM inhibitor, 10 μg/mL MAO A, 2 hours at 37° C., then 70 μM Chemical Formula 3, 3 hours
T1 sequence (P21397 1-527): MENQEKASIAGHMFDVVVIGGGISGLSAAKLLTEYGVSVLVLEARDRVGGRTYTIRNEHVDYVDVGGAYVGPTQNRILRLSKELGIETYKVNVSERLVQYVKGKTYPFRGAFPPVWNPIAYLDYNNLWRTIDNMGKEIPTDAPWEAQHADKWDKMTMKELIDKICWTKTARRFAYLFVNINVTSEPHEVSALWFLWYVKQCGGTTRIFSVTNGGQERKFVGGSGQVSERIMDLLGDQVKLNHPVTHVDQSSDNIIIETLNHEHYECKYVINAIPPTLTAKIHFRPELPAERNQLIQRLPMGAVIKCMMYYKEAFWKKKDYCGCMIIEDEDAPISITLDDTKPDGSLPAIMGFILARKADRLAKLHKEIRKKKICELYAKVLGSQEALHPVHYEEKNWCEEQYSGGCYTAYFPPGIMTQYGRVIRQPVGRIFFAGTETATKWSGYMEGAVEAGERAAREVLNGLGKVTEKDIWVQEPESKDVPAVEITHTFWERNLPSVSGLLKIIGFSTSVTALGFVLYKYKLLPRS
Protocol: The present inventors performed enzyme activity measurement and an enzyme inhibitor experiment using a 96-well fluorescence assay plate. […] Thereafter, 70 μM of the compound of Chemical Formula 3 was treated, and fluorescence was observed by a unit of 10 minutes for 3 hours. The buffer solution and the fluorescence observation method were the same as Example 4.

[3] = test system: Chromaffin cell; assay: Two-photon microscope cell fluorescence imaging, Chromaffin cell; assay type: cell-based; conditions: for two-photon fluorescence of Chromaffin cell treated with inhibitor, then Chemical Formula 3: 100 μM inhibitor, then 100 μM Chemical Formula 3, two-photon excitation 900 nm; for two-photon cell fluorescence image: Chromaffin cell, 100 μM, 1 hour, two-photon excitation 900 nm
Text: (§4) The present inventors observed fluorescence changes in the C6 glioma cell and the Chromaffin cell treated with the compound 1 and the compound of Chemical Formula 3, respectively, and a fluorescence change treated with the MAO enzyme inhibitor through a two-photon electron microscope, and the fluorescence changes were illustrated in FIG. 12. The preparing process of the cells and the fluorescence measuring method were the same as those in Example 8, and the two-photon electron microscope was used in the fluorescence observation.
(§5) The two-photon electron microscope was configured by an upright microscope (BX51, Olympus) and a 20-fold objective lens (XLUMPLFLN-W, NA 1.0 water immersion, Olympus), and a Ti:Sapphire laser (Chameleon Ultra, Coherent) was used.

[4] = Optical characteristics (excitation, emission, quantum yield, two-photon absorption cross-section) in ethanol; conditions: 10 μM in ethanol solvent
[5] = test system: C6 glioma cell; assay: Two-photon microscope cell fluorescence imaging, C6 glioma cell; assay type: cell-based; conditions: 100 μM, 1 hour, two-photon excitation 900 nm
Text: as §4, §5

[6] = test system: C6 glioma cell; assay: One-photon microscope cell fluorescence imaging, C6 glioma cell; assay type: cell-based; conditions: C6 glioma cell (MAO not expressed), 100 μM, 1 hour
Text: as §1, with “619.). […]” for “619.).”
as §2, §3

[7] = molecular target: T2, MAO B enzyme (Homo sapiens, UniProt P27338); assay: MAO enzyme kinetic assay, 96-well fluorescence assay plate (MAO B); assay type: biochemical; conditions: probe as substrate, 37° C., 3 hours, HEPES pH 7.4
T2 sequence (P27338 1-520): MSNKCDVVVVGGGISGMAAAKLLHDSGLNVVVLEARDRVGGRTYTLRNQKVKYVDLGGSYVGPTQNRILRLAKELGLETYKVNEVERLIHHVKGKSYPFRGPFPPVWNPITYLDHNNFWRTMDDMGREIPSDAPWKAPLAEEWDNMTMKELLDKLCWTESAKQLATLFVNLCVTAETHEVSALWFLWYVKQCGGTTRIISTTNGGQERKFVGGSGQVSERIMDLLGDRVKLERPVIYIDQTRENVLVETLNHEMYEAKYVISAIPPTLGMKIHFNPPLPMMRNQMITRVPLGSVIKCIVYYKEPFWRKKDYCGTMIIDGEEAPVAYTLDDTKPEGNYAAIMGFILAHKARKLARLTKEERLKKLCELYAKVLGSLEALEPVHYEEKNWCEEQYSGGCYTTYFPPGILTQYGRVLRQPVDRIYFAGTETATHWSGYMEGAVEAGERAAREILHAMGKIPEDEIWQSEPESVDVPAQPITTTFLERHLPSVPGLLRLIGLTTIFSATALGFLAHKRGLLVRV
Protocol: (§6) The present inventors performed enzyme kinetic assays using a 96-well fluorescence assay plate. The concentration of the compound of Chemical Formula 3 was used from 0 μM to 800 μM, MAO A and B enzymes were used with 10 μg/mL. The buffer solution was the same as Example 4, and the 96-well fluorescence assay plate was kept for 3 hours at 37° C. After 3 hours, the fluorescence intensity was measured by a microplate spectrofluorometer (VICTOR 3 VTM multilabel counter, Perkin Elmer-Wellesley, Mass., USA). The excitation wavelength was 465 nm, and the emission wavelength was recorded in 600 nm. Michaelis-Menten constants were calculated from an enzyme activity graph using an Origin program.
(§7) The present inventors used the compounds at the concentration corresponding to the Michaelis-Menten constants (Chemical Formula 3/MAO A; 70 μM, Chemical Formula 4/MAO B; 252 μM, Chemical Formula 3/MAO B; 75 μM, Chemical Formula 4/MAO B; 210 μM), and performed a fluorescence emission experiment of 50 μg/mL of the MAO enzyme in a buffer solution (100 mM HEPES, pH 7.4 with 5% glycerol and 1% DMSO). In the fluorescence graph measurement, the Photon Technical International Fluorescence system was used. As a cell for fluorescence measurement, a standard quartz cell having a width of 1 cm was used. […]

[8] = molecular target: T1, MAO A; assay: MAO enzyme kinetic assay, 96-well fluorescence assay plate (MAO A); assay type: biochemical; conditions: probe as substrate, 37° C., 3 hours, HEPES pH 7.4
Protocol: as §6, §7

[9] = Fluorescence change characteristic for mercury ions; conditions: 3 μM probe, PBS pH 7.4 with 5% DMSO
Protocol: The present inventors performed a fluorescence emission experiment of the compound 13 in a buffer solution (PBS, pH 7.4 with 5% DMSO) at a concentration of 3 μM. In the fluorescence measurement, the Photon Technical International Fluorescence System was used. […] The fluorescence graph was measured with an excitation wavelength of 448 nm.

O=C(NCCN1CCOCC1)c1ccc(Cl)cc1 [Moclobemide, reference compound]
one-photon fluorescence of Chromaffin cell treated with inhibitor, then Chemical Formula 3 [1]: normally generated the IminoPOS to provide the fluorescence
inhibition of MAO A activity (increase of fluorescence signals) [2]: effectively inhibited
two-photon fluorescence of Chromaffin cell treated with inhibitor, then Chemical Formula 3 [3]: the generation of the IminoPOS was observed

O=c1cc(C(F)(F)F)c2cc3c4c(c2o1)CCCN4CCC3 [coumarin 153, reference compound]
emission wavelength [4]: 548 nm
excitation wavelength [4]: 425 nm

CN(C)c1ccc2cc(C=C(C#N)C#N)c(OCCCN)cc2c1 [Chemical Formula 3, 2-{[3-(3-aminopropoxy)-6-(dimethylamino)naphthalene-2-yl]methylene}malononitrile]
one-photon cell fluorescence image [1]: a bright cell image was provided
two-photon cell fluorescence image [3]: the generation of the IminoPOS was observed
two-photon cell fluorescence image [5]: the fluorescence of the IminoPOS was not observed
one-photon cell fluorescence image [6]: the fluorescence was not shown
Michaelis-Menten constant [7]: 75 µM
Michaelis-Menten constant [8]: 70 µM

C=COc1cc2cc(N(C)C)ccc2cc1C=C(C#N)C#N [compound 13, 2-((6-(dimethylamino)-3-(vinyloxy)naphthalene-2-yl)methylene)malononitrile]
fluorescence change with time after adding mercuric ions ([9]; 3 μM mercuric ions): the fluorescence was increased as time passed
fluorescence change with increasing concentration of mercuric ions (HgCl2) ([9]; excitation 448 nm): the fluorescence was increased

C#CCN(C)Cc1ccccc1 [Pargyline, reference compound]
one-photon fluorescence of Chromaffin cell treated with inhibitor, then Chemical Formula 3 [1]: the fluorescence was not observed
two-photon fluorescence of Chromaffin cell treated with inhibitor, then Chemical Formula 3 [3]: the generation of the IminoPOS was not observed

CN(C)c1ccc2cc3cc(C#N)c(=N)oc3cc2c1 [compound 1, 8-(dimethylamino)-2-imino-2H-benzo[g]chromene-3-carbonitrile]
one-photon cell fluorescence image [1]: bright one-photon cell images
two-photon cell fluorescence image [3]: bright two-photon cell images
emission wavelength [4]: 585 nm
excitation wavelength [4]: 446 nm
quantum yield (ΦF) ([4]; based on Rhodamine 6G): 0.67
two-photon absorption cross-section (GM) ([4]; based on Rhodamine 6G): 126 GM
two-photon cell fluorescence image [5]: bright two-photon cell images
one-photon cell fluorescence image [6]: bright one-photon cell images

CC(=O)c1ccc2cc(N(C)C)ccc2c1 [acedan, 2-acyl-6-dimethylamino-naphthalene, reference compound]
emission wavelength [4]: 501 nm
excitation wavelength [4]: 365 nm

From patent US9353399B2, “Two-photon absorbing compound with methods of synthesis and use” (POSTECH ACADEMY-INDUSTRY FOUNDATION, priority 2012, dated 2016)
